Laboratory results: PMC6212790
The list shows a part of the results. At the low end of the ranking the order means little.

target: T1, GST-Rok (full length) (UniProt O34857); experiment: protein binding microarray; conditions: Rok is a gene silencer of Bacillus subtilis; high values mean tight binding; most listed sequences are background and not binding sites; double strand, one strand shown;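 also: rank score from −0.5 (least bound) to 0.5 (best bound)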
T1 sequence: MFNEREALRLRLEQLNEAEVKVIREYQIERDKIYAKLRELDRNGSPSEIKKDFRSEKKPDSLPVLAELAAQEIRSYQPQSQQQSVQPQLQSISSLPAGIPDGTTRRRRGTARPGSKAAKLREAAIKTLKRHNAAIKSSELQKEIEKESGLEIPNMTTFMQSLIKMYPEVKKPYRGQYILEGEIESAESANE

| Sequence | binding signal [E-score] |
| --- | --- |
| CCGTCCAC | -0.219 |
| GATTACTA | 0.2 |
| GCATCGAA | 0.00962 |
| ACAGGGCC | -0.263 |
| AAGATGAA | 0.00509 |
| CTCTTCTC | -0.219 |
| TGAGTAAA | 0.111 |
| CTACAGAC | 0.12 |
| CTTTGGGC | -0.295 |
| ATTTCATG | 0.0972 |
| TCCGGAAA | -0.00103 |
| CGACAGAA | -0.0304 |
| AACCCCTA | -0.191 |
| GAAGCCCC | -0.442 |
| ACAGAGTC | -0.161 |
| ACCGGACA | -0.0843 |
| CGAATATA | 0.321 |
| ATAGGCTC | -0.0728 |
| GATGAGGA | -0.233 |
| AACCTCAA | -0.0878 |
| CCCGATAA | 0.123 |
| ATGACCAG | -0.0938 |
| GTATTCCA | 0.0601 |
| AGAACAGC | -0.0769 |
| ATGATGGG | -0.0753 |

| Sequence | binding signal [E-score] |
| --- | --- |
| CCGGGGGA | -0.378 |
| AATAGGGG | -0.179 |
| ATCCGCTC | -0.117 |
| AAGGTGTC | -0.258 |
| CCCGGACA | -0.0453 |
| ACCTGGGG | -0.355 |
| ACCCTTTA | -0.0468 |
| CTTGTTAC | 0.00671 |
| GCTGCAGC | -0.185 |
| GCAAACAC | -0.0266 |
| AAGCTCGC | -0.0384 |
| ACAACCGG | -0.0681 |
| CAAATACG | 0.143 |
| ATATGCTC | 0.0946 |
| AGGGAGGG | -0.159 |
| CGATCAAA | 0.143 |
| CACTCTCG | -0.0591 |
| CAAGGAGG | -0.338 |
| ATAGCTAT | 0.373 |
| ACCGCCCT | -0.115 |
| AGCCTGAT | -0.0266 |
| TAAAATGA | 0.213 |
| GTGCGAAA | -0.0226 |
| AGCACAGA | -0.0338 |
| ATCGCAAT | 0.167 |

| Sequence | binding signal [E-score] |
| --- | --- |
| AATGTAGA | 0.389 |
| CACGTAGG | -0.266 |
| AACCAAAT | 0.0861 |
| AACCGAGG | -0.237 |
| AGAACATA | 0.183 |
| ACTCGATC | 0.0884 |
| GCGAAGCA | -0.268 |
| GACGCATC | -0.0842 |
| GTCTCATA | 0.0567 |
| ATGCCCAC | -0.184 |
| ACTGGATA | 0.192 |
| CATGCGGC | -0.125 |
| CGATAATA | 0.23 |
| ACCCGGTC | -0.145 |
| GTCCAAAA | -0.0623 |
| CCCATTAG | -0.0981 |
| CAAGTGGG | -0.178 |
| CCGCTTCC | -0.13 |
| AATTTTAA | 0.149 |
| ACGTACAC | 0.134 |
| GAGTGCCC | -0.147 |
| CGTGAACC | -0.0228 |
| GCGCAAGC | -0.204 |
| ATGCAAGG | -0.0549 |
| ACAACCAG | -0.17 |

| Sequence | binding signal [E-score] |
| --- | --- |
| AGTGGCAC | -0.161 |
| TCCATGAA | -0.159 |
| CATAGGCG | 0.0239 |
| TAACGTTA | 0.266 |
| AGACACAC | -0.123 |
| GCTGTACC | -0.0639 |
| TAGCTTAA | 0.0214 |
| CTGGCCTA | -0.342 |
| CTTAGAGA | -0.111 |
| AGCCTTTC | -0.214 |
| ACTTTTGG | 0.0305 |
| ACATTGGA | 0.0689 |
| AACTTGAA | 0.118 |
| CCCAGGAG | -0.221 |
| CAGGCAGC | -0.283 |
| CGGTTGTC | -0.191 |
| ATACATAA | 0.316 |
| GTTATGCA | 0.323 |
| ACCAAAGT | 0.17 |
| ACCATATG | 0.249 |
| GAGTCGGA | -0.311 |
| CTCAGTTC | -0.0174 |
| CACTAGAC | -0.0531 |
| AAGTTAAA | 0.0997 |
| CAGGCCCG | -0.364 |

| Sequence | binding signal [E-score] |
| --- | --- |
| CAATTATC | 0.2 |
| AGTGGGAC | -0.086 |
| ATTACTCC | 0.196 |
| CGCGTTTA | 0.0282 |
| ACTATATG | 0.267 |
| CAGCGCTC | -0.219 |
| ATGCCAGC | -0.0477 |
| AACGGTGT | 0.00756 |
| GTATTCAC | 0.126 |
| CATGATAA | 0.161 |
| TAAGTGGA | 0.0175 |
| TCAACGCA | -0.0585 |
| ACTCTCGG | 0.03 |
| CCGCTAAC | -0.0533 |
| GATAAGGA | -0.0947 |
| GCCTGACC | -0.402 |
| AAAGTGTT | -0.111 |
| AGAAGGAG | -0.22 |
| AAACAGAT | 0.0639 |
| CCTTACAC | -0.0855 |
| ACGCATCA | -0.00899 |
| CAGGGGCC | -0.409 |
| CATACGAA | -0.0152 |
| GCTCGGGA | -0.35 |
| AGTAAAGC | 0.0185 |

| Sequence | binding signal [E-score] |
| --- | --- |
| ACGAGGCC | -0.266 |
| ATTCCAAT | 0.0568 |
| ACTGCTGA | 0.13 |
| GGAGCTTA | 0.0465 |
| GCCCTGAC | -0.215 |
| CTCATGGA | -0.0591 |
| AAGTGTGC | -0.0693 |
| GGTGAGCA | -0.105 |
| AAGACACT | 0.0454 |
| ACAAGGTG | -0.3 |
| CAAGATGC | -0.122 |
| AGTACCTA | 0.272 |
| CCAGAGGA | -0.171 |
| CAAGAACC | -0.184 |
| ACTGTGTG | 0.0734 |
| CACCTCTC | -0.197 |
| AAATCCGC | -0.0635 |
| GTACTGTA | 0.155 |
| GGATTGCC | -0.234 |
| CGGATCCG | -0.109 |
| AGCTAAGG | -0.0413 |
| GTTCTCAA | 0.0738 |
| CACATCAA | -0.0534 |
| TACGTCGA | 0.183 |
| ACTGTCTC | -0.235 |

| Sequence | binding signal [E-score] |
| --- | --- |
| ATAGAAAT | 0.337 |
| ATAATGGG | 0.121 |
| ATGTTATA | 0.35 |
| TACCACTA | 0.239 |
| AGGTCACT | -0.137 |
| GAATCCGA | -0.084 |
| AACAGATC | 0.0215 |
| ACGTGGGA | -0.0675 |
| AGAACAAA | -0.063 |
| CAGGTGTA | -0.026 |
| CTAACTCC | -0.0412 |
| GGATATCC | 0.0574 |
| GTTACTCA | 0.185 |
| CGAGTCTC | -0.167 |
| GAGCATAA | 0.144 |
| ACCGCTAA | 0.0683 |
| ACCACGGA | -0.00892 |
| ACCCATGG | -0.165 |
| CCCACGCG | -0.215 |
| CGGATCAG | -0.0376 |
| AGAACTGG | 0.000129 |
| CGATGTAG | 0.11 |
| AAGTTGTA | 0.213 |
| GTCTGGCA | -0.182 |
| ATGAAGCG | -0.23 |

| Sequence | binding signal [E-score] |
| --- | --- |
| ATCCATAC | 0.0643 |
| CATTTTAG | 0.0911 |
| ACGAACGT | -0.103 |
| GCGATGAA | 0.00908 |
| GCATCATA | 0.156 |
| AATGGCCG | -0.15 |
| ATATTGGA | 0.241 |
| GAATACCA | 0.0659 |
| AATACACC | -0.000301 |
| TCGAAAAA | -0.0412 |
| CAGTAGCA | 0.193 |
| ATCCCAAG | 0.0513 |
| ATTGGTCC | -0.197 |
| AACTGCCA | -0.116 |
| GGAAGATA | 0.153 |
| TCGGACCA | -0.0331 |
| AGAGTCCA | -0.0784 |
| ACTACCTA | 0.331 |
| ATCATTGC | 0.131 |
| AGGGTTAG | -0.254 |
| AAGAGACT | -0.103 |
| AACTGTTC | 0.004 |
| TACTCGAA | 0.228 |
| AGGCGGAC | -0.278 |
| AAACTTAC | 0.189 |

| Sequence | binding signal [E-score] |
| --- | --- |
| AATGCCTG | 0.0837 |
| ATGGTAGC | 0.287 |
| CGCTGCAC | -0.27 |
| CACTGAGG | -0.226 |
| TACGCCCA | -0.0998 |
| ATCCAGAA | -0.0657 |
| ATTCACAA | 0.0886 |
| AAAAAGAT | 0.0439 |
| ATAACTGC | 0.185 |
| ATCTACTC | 0.251 |
| TATAGGGA | 0.0939 |
| ACTAGCAC | 0.138 |
| CGCTGACA | 0.0318 |
| CAACGTGA | -0.0485 |
| ATACTCCG | 0.0778 |
| ACATGTCT | -0.0723 |
| TAAGTGCA | 0.0167 |
| TAAAGGCA | -0.104 |
| ACGCCTAA | -0.258 |
